Measurements published in article PMC3334886.
Results are given in words; binding and its absence hold for the method and conditions named. Binding seen in cells or lysates may run through a third protein. Some binding calls cover weakened binding; strength is not graded here. For part of these data: Tags and fused reporters may be left off the sequences shown.

Columns and labels:
[1] = biological target: Nlrp1b1_(1086–1233) (mouse) (UniProt Q2LKW6); test: co-IP; HA- and T7-tagged copies co-expressed in HT1080 cells; lysed in EBC buffer (50 mM Tris pH 8, 150 mM NaCl, 0.5% NP-40) by sonication; anti-HA antibody overnight, protein A Sepharose 2 h at 4°C; blot anti-T7
[2] = biological target: T1, Nlrp1b1_(720–1233) (mouse) (UniProt Q2LKW6); test: co-IP; T7- and HA-tagged Nlrp1b1_(720–1233) WT or V988D co-expressed with or without pro-caspase-1-C284A-FLAG (and pro-IL-1β-HA) in HT1080 cells; EBC lysates; anti-T7 antibody; blot anti-HA, anti-caspase-1 p10, anti-T7
T1 sequence: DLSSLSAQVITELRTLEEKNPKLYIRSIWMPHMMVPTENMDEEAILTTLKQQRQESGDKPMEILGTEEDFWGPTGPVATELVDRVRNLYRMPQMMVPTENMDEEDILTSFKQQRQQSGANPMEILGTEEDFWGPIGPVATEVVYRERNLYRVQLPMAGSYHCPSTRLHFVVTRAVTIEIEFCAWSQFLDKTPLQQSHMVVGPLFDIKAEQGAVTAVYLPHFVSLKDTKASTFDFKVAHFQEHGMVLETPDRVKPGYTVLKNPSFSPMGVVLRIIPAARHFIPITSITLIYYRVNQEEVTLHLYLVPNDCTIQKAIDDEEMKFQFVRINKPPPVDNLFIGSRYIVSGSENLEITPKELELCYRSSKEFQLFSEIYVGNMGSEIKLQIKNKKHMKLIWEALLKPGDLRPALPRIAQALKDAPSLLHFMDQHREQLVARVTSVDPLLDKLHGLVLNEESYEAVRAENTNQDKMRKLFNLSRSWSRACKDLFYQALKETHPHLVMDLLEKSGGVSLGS

[3] = biological target: T2, Nlrp1b1_(720–1233)-V988D (mouse) (UniProt Q2LKW6); test: as above
T2 sequence: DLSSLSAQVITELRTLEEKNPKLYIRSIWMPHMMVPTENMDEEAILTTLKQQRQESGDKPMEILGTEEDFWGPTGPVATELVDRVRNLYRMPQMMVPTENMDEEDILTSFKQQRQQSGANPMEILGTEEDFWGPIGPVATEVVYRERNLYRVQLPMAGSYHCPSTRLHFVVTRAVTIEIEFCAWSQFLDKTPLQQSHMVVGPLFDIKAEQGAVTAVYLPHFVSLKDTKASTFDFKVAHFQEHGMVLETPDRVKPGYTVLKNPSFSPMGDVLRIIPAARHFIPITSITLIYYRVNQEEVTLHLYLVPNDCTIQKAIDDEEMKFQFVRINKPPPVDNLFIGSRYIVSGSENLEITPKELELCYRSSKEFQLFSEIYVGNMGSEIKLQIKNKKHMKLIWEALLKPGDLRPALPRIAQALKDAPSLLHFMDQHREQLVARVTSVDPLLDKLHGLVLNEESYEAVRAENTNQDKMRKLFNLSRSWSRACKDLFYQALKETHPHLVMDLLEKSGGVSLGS

[4] = biological target: Nlrp1b1_(1100–1233) (mouse) (UniProt Q2LKW6); test: co-IP; HA- and T7-tagged copies co-expressed in HT1080 cells; lysed in EBC buffer (50 mM Tris pH 8, 150 mM NaCl, 0.5% NP-40) by sonication; anti-HA antibody overnight, protein A Sepharose 2 h at 4°C; blot anti-T7
pro-caspase-1-C284A-T7 = biological target: T3, pro-caspase-1-C284A-T7 (UniProt P29452); test: co-IP; HA-tagged Nlrp1b1 fragments co-expressed with pro-caspase-1-C284A-T7 in HT1080 cells; EBC lysates; anti-T7 (control anti-GFP) antibody overnight, protein A Sepharose 2 h; blot anti-HA and anti-caspase-1 p10
T3 sequence: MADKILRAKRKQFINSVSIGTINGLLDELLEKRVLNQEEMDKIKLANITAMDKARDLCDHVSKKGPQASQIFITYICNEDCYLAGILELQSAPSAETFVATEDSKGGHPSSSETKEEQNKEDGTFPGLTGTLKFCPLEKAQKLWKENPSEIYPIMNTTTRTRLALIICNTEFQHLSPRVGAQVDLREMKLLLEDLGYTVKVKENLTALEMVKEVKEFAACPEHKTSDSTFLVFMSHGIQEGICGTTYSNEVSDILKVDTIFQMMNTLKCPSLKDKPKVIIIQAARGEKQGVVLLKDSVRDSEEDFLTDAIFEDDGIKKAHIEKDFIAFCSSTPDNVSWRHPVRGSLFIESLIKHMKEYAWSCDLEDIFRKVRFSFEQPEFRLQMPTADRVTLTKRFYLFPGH

[5] = biological target: T4, N-terminal cleavage product of Nlrp1b1 (TAP-tagged) (mouse) (UniProt Q2LKW6); test: co-IP
T4 sequence: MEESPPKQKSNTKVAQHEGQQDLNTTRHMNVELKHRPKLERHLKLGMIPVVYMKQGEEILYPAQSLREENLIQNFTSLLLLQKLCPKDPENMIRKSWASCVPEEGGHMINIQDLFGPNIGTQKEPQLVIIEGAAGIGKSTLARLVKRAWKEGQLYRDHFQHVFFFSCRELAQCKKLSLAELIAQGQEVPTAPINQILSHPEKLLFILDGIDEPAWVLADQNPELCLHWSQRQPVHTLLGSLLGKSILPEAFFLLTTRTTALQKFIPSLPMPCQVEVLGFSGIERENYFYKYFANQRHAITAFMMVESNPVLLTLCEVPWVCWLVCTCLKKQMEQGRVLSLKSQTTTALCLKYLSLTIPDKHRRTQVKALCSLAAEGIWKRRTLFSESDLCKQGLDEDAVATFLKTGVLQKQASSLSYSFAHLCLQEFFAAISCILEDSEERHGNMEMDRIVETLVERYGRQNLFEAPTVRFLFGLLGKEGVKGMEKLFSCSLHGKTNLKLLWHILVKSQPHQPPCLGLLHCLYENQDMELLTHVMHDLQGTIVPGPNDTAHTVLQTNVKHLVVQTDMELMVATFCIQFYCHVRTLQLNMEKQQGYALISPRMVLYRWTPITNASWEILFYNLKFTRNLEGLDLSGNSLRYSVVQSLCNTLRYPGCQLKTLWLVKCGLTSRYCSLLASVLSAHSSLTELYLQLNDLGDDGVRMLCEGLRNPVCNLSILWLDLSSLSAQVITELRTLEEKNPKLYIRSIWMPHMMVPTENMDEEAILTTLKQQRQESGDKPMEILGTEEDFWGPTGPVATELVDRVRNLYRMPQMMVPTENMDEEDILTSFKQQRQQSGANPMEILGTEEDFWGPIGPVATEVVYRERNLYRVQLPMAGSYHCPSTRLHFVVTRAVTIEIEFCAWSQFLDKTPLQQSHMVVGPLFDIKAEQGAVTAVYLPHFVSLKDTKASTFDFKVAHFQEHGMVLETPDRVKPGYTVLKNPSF

[6] = biological target: Nlrp1b1_(1102–1233) (mouse) (UniProt Q2LKW6); test: co-IP; HA- and T7-tagged copies co-expressed in HT1080 cells; lysed in EBC buffer (50 mM Tris pH 8, 150 mM NaCl, 0.5% NP-40) by sonication; anti-HA antibody overnight, protein A Sepharose 2 h at 4°C; blot anti-T7
[7] = biological target: Nlrp1b1_(1142–1233) (mouse) (UniProt Q2LKW6); test: as above

B1: Nlrp1b1_(1086–1233) (domain or fragment, UniProt Q2LKW6 1086-1233)
chain: FQLFSEIYVGNMGSEIKLQIKNKKHMKLIWEALLKPGDLRPALPRIAQALKDAPSLLHFMDQHREQLVARVTSVDPLLDKLHGLVLNEESYEAVRAENTNQDKMRKLFNLSRSWSRACKDLFYQALKETHPHLVMDLLEKSGGVSLGS
binding [1]: binds

B2: pro-caspase-1-C284A-FLAG (enzyme, UniProt P29452 1-402)
chain: MADKILRAKRKQFINSVSIGTINGLLDELLEKRVLNQEEMDKIKLANITAMDKARDLCDHVSKKGPQASQIFITYICNEDCYLAGILELQSAPSAETFVATEDSKGGHPSSSETKEEQNKEDGTFPGLTGTLKFCPLEKAQKLWKENPSEIYPIMNTTTRTRLALIICNTEFQHLSPRVGAQVDLREMKLLLEDLGYTVKVKENLTALEMVKEVKEFAACPEHKTSDSTFLVFMSHGIQEGICGTTYSNEVSDILKVDTIFQMMNTLKCPSLKDKPKVIIIQAARGEKQGVVLLKDSVRDSEEDFLTDAIFEDDGIKKAHIEKDFIAFCSSTPDNVSWRHPVRGSLFIESLIKHMKEYAWSCDLEDIFRKVRFSFEQPEFRLQMPTADRVTLTKRFYLFPGH
binding [2]: binds
binding [3]: binds

B3: Nlrp1b1_(1100–1233) (domain or fragment, UniProt Q2LKW6 1100-1233)
chain: EIKLQIKNKKHMKLIWEALLKPGDLRPALPRIAQALKDAPSLLHFMDQHREQLVARVTSVDPLLDKLHGLVLNEESYEAVRAENTNQDKMRKLFNLSRSWSRACKDLFYQALKETHPHLVMDLLEKSGGVSLGS
binding [4]: binds
binding (pro-caspase-1-C284A-T7): binds

B4: Nlrp1b1_(1100–1233)-7A (domain or fragment, UniProt Q2LKW6 1100-1233)
chain: AAAAAAANKKHMKLIWEALLKPGDLRPALPRIAQALKDAPSLLHFMDQHREQLVARVTSVDPLLDKLHGLVLNEESYEAVRAENTNQDKMRKLFNLSRSWSRACKDLFYQALKETHPHLVMDLLEKSGGVSLGS
binding (pro-caspase-1-C284A-T7): binds

B5: C-terminal cleavage product of Nlrp1b1 (HA-tagged) (domain or fragment, UniProt Q2LKW6 984-1233)
chain: SPMGVVLRIIPAARHFIPITSITLIYYRVNQEEVTLHLYLVPNDCTIQKAIDDEEMKFQFVRINKPPPVDNLFIGSRYIVSGSENLEITPKELELCYRSSKEFQLFSEIYVGNMGSEIKLQIKNKKHMKLIWEALLKPGDLRPALPRIAQALKDAPSLLHFMDQHREQLVARVTSVDPLLDKLHGLVLNEESYEAVRAENTNQDKMRKLFNLSRSWSRACKDLFYQALKETHPHLVMDLLEKSGGVSLGS
binding [5]: binds

B6: Nlrp1b1_(720–1233) (domain or fragment, UniProt Q2LKW6 720-1233)
chain: DLSSLSAQVITELRTLEEKNPKLYIRSIWMPHMMVPTENMDEEAILTTLKQQRQESGDKPMEILGTEEDFWGPTGPVATELVDRVRNLYRMPQMMVPTENMDEEDILTSFKQQRQQSGANPMEILGTEEDFWGPIGPVATEVVYRERNLYRVQLPMAGSYHCPSTRLHFVVTRAVTIEIEFCAWSQFLDKTPLQQSHMVVGPLFDIKAEQGAVTAVYLPHFVSLKDTKASTFDFKVAHFQEHGMVLETPDRVKPGYTVLKNPSFSPMGVVLRIIPAARHFIPITSITLIYYRVNQEEVTLHLYLVPNDCTIQKAIDDEEMKFQFVRINKPPPVDNLFIGSRYIVSGSENLEITPKELELCYRSSKEFQLFSEIYVGNMGSEIKLQIKNKKHMKLIWEALLKPGDLRPALPRIAQALKDAPSLLHFMDQHREQLVARVTSVDPLLDKLHGLVLNEESYEAVRAENTNQDKMRKLFNLSRSWSRACKDLFYQALKETHPHLVMDLLEKSGGVSLGS
binding [2]: binds

B7: Nlrp1b1_(720–1233)-V988D (domain or fragment, UniProt Q2LKW6 720-1233)
chain: DLSSLSAQVITELRTLEEKNPKLYIRSIWMPHMMVPTENMDEEAILTTLKQQRQESGDKPMEILGTEEDFWGPTGPVATELVDRVRNLYRMPQMMVPTENMDEEDILTSFKQQRQQSGANPMEILGTEEDFWGPIGPVATEVVYRERNLYRVQLPMAGSYHCPSTRLHFVVTRAVTIEIEFCAWSQFLDKTPLQQSHMVVGPLFDIKAEQGAVTAVYLPHFVSLKDTKASTFDFKVAHFQEHGMVLETPDRVKPGYTVLKNPSFSPMGDVLRIIPAARHFIPITSITLIYYRVNQEEVTLHLYLVPNDCTIQKAIDDEEMKFQFVRINKPPPVDNLFIGSRYIVSGSENLEITPKELELCYRSSKEFQLFSEIYVGNMGSEIKLQIKNKKHMKLIWEALLKPGDLRPALPRIAQALKDAPSLLHFMDQHREQLVARVTSVDPLLDKLHGLVLNEESYEAVRAENTNQDKMRKLFNLSRSWSRACKDLFYQALKETHPHLVMDLLEKSGGVSLGS
binding [3]: binds

B8: Nlrp1b1_(1102–1233) (domain or fragment, UniProt Q2LKW6 1102-1233)
chain: KLQIKNKKHMKLIWEALLKPGDLRPALPRIAQALKDAPSLLHFMDQHREQLVARVTSVDPLLDKLHGLVLNEESYEAVRAENTNQDKMRKLFNLSRSWSRACKDLFYQALKETHPHLVMDLLEKSGGVSLGS
binding [6]: no binding

B9: Nlrp1b1_(1142–1233) (domain or fragment, UniProt Q2LKW6 1142-1233)
chain: LHFMDQHREQLVARVTSVDPLLDKLHGLVLNEESYEAVRAENTNQDKMRKLFNLSRSWSRACKDLFYQALKETHPHLVMDLLEKSGGVSLGS
binding [7]: no binding
binding (pro-caspase-1-C284A-T7): no binding
